This is one part of the list. The full chains were built here from the parent and the listed change. Inactive controls read about 0.05.
B1: TEV protease; numbered along this chain (parent)
chain: MGESLFKGPRDYNPISSSICHLTNESDGHTTSLYGIGFGPFIITNKHLFRRNNGTLVVQSLHGVFKVKDTTTLQQHLVDGRDMIIIRMPKDFPPFPQKLKFREPQREERICLVTTNFQTKSMSSMVSDTSCTFPSGDGIFWKHWIQTKDGQCGSPLVSTRDGFIVGIHSASNFTNTNNYFTSVPKNFMELLTNQEAQQWVSGWRLNADSVLWGGHKVFMVKPEEPFQPVKEATQL

Variants of: B1
Assay: raw area under fraction-flipped curve 0-4 h after induction (AUC4h, not background-subtracted), DNA-recorder readout of cleavage of the substrate (dimensionless); higher = more cleavage of the substrate by the protease variant
Settings: temperature: 34 °C; time window: 0-4 h after rhamnose induction
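Further: Bxb1 expression induced with 0.2% (w/v) L-rhamnose at OD600 near 0.5, cultures sampled hourly, flipped fraction per protease–substrate barcode pair counted by paired-end Illumina sequencing.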

Variant	area with substrate ENLYDQS	area with substrate ENLYEQS	area with substrate ENLYGQS	area with substrate ENLYHQS	area with substrate ENLYIQS	area with substrate ENLYKQS	area with substrate ENLYMQS	area with substrate ENLYNQS	area with substrate ENLYPQS	area with substrate ENLYTQS	area with substrate ENLYVQS	area with substrate ENLYWQS	area with substrate ENLYLQS	area with substrate ENLYQQS	area with substrate ENLYRQS	area with substrate ENLYSQS	area with substrate ENLYYQS	area with substrate ENLYCQS
S26Q	0.0675	0.076	0.0663	0.0694	0.113	0.0343	0.0922	0.058	0.0631	0.0616	0.103	0.0799	–	–	–	–	–	–
T181F	0.0566	0.0558	–	0.0627	0.062	0.0582	–	0.0631	–	0.0568	0.0492	–	0.0613	0.0571	0.0617	0.0988	0.0448	–
N53D	0.0594	–	0.0727	0.0636	0.136	0.0596	0.104	0.0742	0.0724	–	0.0942	0.0719	0.0912	0.0667	0.0575	0.0577	0.0766	–
T31V	0.0664	0.0664	0.066	0.0686	0.149	0.0738	0.0925	0.0816	0.0673	0.0786	0.0824	0.0879	–	0.0788	0.0539	0.0788	0.0628	–
R109L	0.0636	–	0.0746	0.0739	0.0782	0.0578	–	–	0.0803	0.083	0.151	0.0888	0.0809	0.0697	0.0598	0.0661	–	–
F133P	0.0652	0.061	0.0632	0.0497	0.0825	0.0242	0.0593	0.0658	0.0473	–	0.0724	0.068	0.0649	0.0685	0.0531	–	0.0462	–
H29T	0.0544	0.0636	0.0673	0.0634	0.0814	–	0.0875	–	0.0917	0.082	0.111	–	0.102	0.0667	0.07	–	0.0667	–
K98S	0.054	0.0692	0.0716	0.0732	0.122	0.0343	0.099	0.0846	0.0758	0.0774	0.118	0.0682	–	0.0603	0.0706	–	0.0589	0.0862
S130E	0.0448	0.0826	–	–	–	0.0572	–	0.0701	0.0681	–	0.117	0.0821	0.0763	–	0.0575	0.0823	0.0608	–
Q146P	0.0472	–	0.0651	0.09	0.121	0.0788	0.102	–	0.0853	0.13	0.13	0.093	0.0932	0.0123	0.0646	0.0503	–	–
Q146V	0.0587	0.0719	–	0.0812	–	–	0.0805	–	–	0.0866	0.114	0.072	–	–	–	0.0757	–	–
Q146D	0.0465	0.0784	0.0536	0.0656	–	0.059	–	0.0707	–	–	0.128	0.0881	–	0.0493	0.0496	0.0798	–	–
L235E	0.0485	0.069	–	–	–	–	–	0.0634	–	–	–	0.124	–	–	–	–	0.057	–
Q105L	0.0545	0.102	–	0.0556	0.132	0.0399	0.0951	0.0834	0.0719	0.098	0.11	–	–	0.049	–	0.0643	–	–
S158N	0.0534	0.0543	0.0438	0.0585	0.0876	–	0.0628	0.0609	–	–	0.0995	0.0782	–	–	–	–	–	–
Q97H	0.0684	0.0685	0.0657	0.0677	–	–	0.0637	0.069	0.0762	0.0847	–	0.0693	–	–	0.0536	–	–	–
Q97A	0.0744	–	0.0616	0.0714	0.122	0.0496	0.0728	0.06	–	–	–	–	–	0.0671	–	0.0705	–	–
Q194N	0.0675	0.064	0.0567	0.0409	–	0.103	0.0858	0.0817	0.083	–	–	0.0588	–	0.0676	–	–	–	–
F140V	0.0596	0.0612	0.0549	0.0618	0.0896	0.0608	0.0625	0.0577	0.0491	0.0696	0.063	0.0608	0.0626	0.0626	0.0688	–	0.0569	–
V67A	0.0545	0.0688	–	0.056	0.107	0.0562	0.0904	0.0559	0.0911	–	0.122	0.0784	–	0.067	0.0634	0.0761	–	–
D79T	0.0544	0.0522	–	–	–	0.0619	0.0835	0.057	–	–	0.0985	–	–	0.0711	–	0.0844	–	–
D79M	0.0619	0.0424	0.0663	0.0662	0.13	0.0412	0.0795	0.0611	0.0602	0.089	0.0997	–	–	–	0.0628	0.0608	0.0575	–
D79S	0.0571	0.0675	0.0722	0.0817	0.113	0.0706	0.0838	0.0676	0.0636	0.082	0.0799	0.0521	0.0741	0.0595	0.0592	0.0856	–	–
K142W	0.0544	0.0651	0.0627	0.0588	0.0727	0.0611	0.0694	–	0.0709	0.0617	0.079	–	–	0.074	0.071	0.0607	0.0633	–
Q75A	0.056	0.0604	–	0.066	0.0861	–	0.0641	0.0643	–	–	–	0.0682	–	0.0673	–	–	0.0672	–
P222I	0.0734	–	0.0549	0.0556	–	–	0.0883	0.0773	0.064	–	0.0905	0.0695	–	0.0552	–	–	0.0666	–
I84A	0.0505	0.0577	0.064	0.0542	–	0.0291	0.0724	0.068	–	0.0671	–	–	–	0.0664	–	–	–	–
F49D	0.057	0.0564	0.05	0.0398	0.0591	0.0668	0.052	0.063	0.0625	0.0433	0.0719	0.0537	0.066	0.0486	0.0667	0.0493	–	–

Source: the supplement of paper PMC12217912
